{
  "source": "PubChem BioAssay AID938",
  "about": "(National Center for Advancing Translational Sciences (NCATS), 2007)",
  "note": "Hit rate of the full screen: of about 73,000 compounds, about 1,800 (2.5%) were called active. Roughly 13% stayed inconclusive and do not appear here. The call rests on the fitted dose curve; in most records, active means well fitted activation curve with a large enough effect; inconclusive means small, poorly fitted or top-dose-only effect; inactive means no such curve, though single readings can be large or run the other way. Only a part is listed here, and it is no random draw. Potency means the concentration at half of the fitted maximal effect.",
  "data": [
    {"assay": "qHTS Assay for Agonists of the Thyroid Stimulating Hormone Receptor: Activators of Intracellular cAMP Concentrations in Parental HEK 293; further: nearly all actives have a fitted effect of over 55% in size; on activation: % of control where 0% means no effect", "settings": "parental HEK293 CNG cAMP sensor, membrane potential fluorescence; series mostly up to 57.1 µM; activation: at the top concentration", "outline": "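Parental HEK 293 cells stably expressing a modified CNG channel (no TSHR) report cAMP rise as membrane depolarization. Membrane potential dye with 100 uM RO 20-1724 was loaded for 60 min at room temperature, then compound added for 30 min; fluorescence read at 590 nm.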", "values": [
      {"smiles": "O=c1c2cccnc2[nH]c(=S)n1CCCN1CCN(c2ccc(F)cc2)CC1", "activation": "inactive: -45.7%"},
      {"smiles": "CN(C)c1ccc(-c2nc(-n3ccnc3)c3ccccc3n2)cc1", "activation": "inactive: -30.2%"},
      {"smiles": "CCN(CC)CCOC(=O)C1(c2ccc([N+](=O)[O-])cc2)CCCC1", "activation": "inactive: 5.24% [at 25.6 µM]"},
      {"smiles": "CN(C)CCCN1c2ccccc2CCc2ccc(Cl)cc21", "Potency": "inactive"},
      {"smiles": "C[C@@H]1CC2(OC(O)[C@]3(C)O[C@H]23)O[C@H]2C[C@@]3(C)[C@@H]4CC[C@H]5C(C)(C)C(O[C@@H]6OC[C@@H](O)[C@H](O)[C@H]6O)CC[C@@]56C[C@@]46CC[C@]3(C)[C@@H]12", "note": "(stereo partly specified)", "activation": "inactive: -34.9%"},
      {"smiles": "Cc1sc2ncnc(N3CCCCC3C)c2c1C", "note": "(stereo unspecified)", "Potency": "active: 25.1 µM"},
      {"smiles": "CCc1c(C)sc(NC(=O)c2ccco2)c1C(=O)N1CCOCC1", "activation": "inactive: -56%"},
      {"smiles": "CCCCCCN(CCCCCC)C(=O)Cc1c(-c2ccc(F)cc2)[nH]c2ccccc12", "activation": "inactive: 15.7%"},
      {"smiles": "CCOC(=O)c1sc(C)c2c1NC(C)(c1cccs1)NC2=O", "note": "(stereo unspecified)", "activation": "inactive: 3.37%"},
      {"smiles": "COC(=O)[C@H]1[C@H]2C[C@@H]3c4[nH]c5cc(OC)ccc5c4CCN3C[C@H]2C[C@@H](OC(=O)c2cc(OC)c(OC)c(OC)c2)[C@@H]1OC", "activation": "inactive: -59.1%"},
      {"smiles": "CC(C)C[C@H](NC(=O)[C@@H](O)[C@H](N)Cc1ccccc1)C(=O)O", "activation": "inactive: 10.4%"},
      {"smiles": "CCCC1(c2ccccc2)NC(=O)N(CC(=O)c2[nH]c(C)c(C(=O)OCC)c2C)C1=O", "note": "(stereo unspecified)", "activation": "inactive: -36.9%"},
      {"smiles": "CCOC(=O)c1ccc2ncc(C(=O)OCC)c(NCc3ccco3)c2c1", "Potency": "active: 25.1 µM"},
      {"smiles": "CO[C@H]1C=CO[C@]2(C)Oc3c(C)c(O)c4c(O)c(c5c(c4c3C2=O)NC2(CCN(CC(C)C)CC2)N=5)=NC(=O)C(C)=CC=C[C@@H](C)[C@@H](O)[C@@H](C)[C@@H](O)[C@@H](C)[C@@H](OC(C)=O)[C@@H]1C", "activation": "inactive: -23.7% [at 25.6 µM]"},
      {"smiles": "COC(=O)[C@@]1(Cc2ccc(OC)cc2)[C@H]2c3cc(C(=O)N(C)C)n(Cc4ccccc4)c3C[C@H]2CN1C(=O)c1ccccc1", "Potency": "active: 12.6 µM"},
      {"smiles": "Cc1cc(C)cc(OCC(O)CN2C(=O)NC(C)(C)C2=O)c1", "note": "(stereo unspecified)", "activation": "inactive: -51.9%"},
      {"smiles": "CN(C)C(=O)CSc1nnc([C@H](Cc2c[nH]c3ccccc23)NC(=O)OC(C)(C)C)o1", "activation": "inactive: 1.82%"},
      {"smiles": "CS(=O)(=O)Nc1ccc([N+](=O)[O-])cc1Oc1ccccc1", "activation": "inactive: -5.11%"},
      {"smiles": "CCCC(=O)N(c1ccc(OCC)cc1)C1C=CS(=O)(=O)C1", "note": "(stereo unspecified)", "Potency": "active: 3.16 µM"},
      {"smiles": "OCc1ccccc1", "activation": "inactive: -14.9%"},
      {"smiles": "CCOc1ccc(NC(C)c2cc(Cl)ccc2O)cc1", "note": "(stereo unspecified)", "activation": "inactive: -32%"},
      {"smiles": "CCC(Sc1nnc(C)s1)C(=O)Nc1nccs1", "note": "(stereo unspecified)", "Potency": "active: 25.1 µM"},
      {"smiles": "Cn1c(=O)n(C)c2cc(S(=O)(=O)N3CCCc4ccccc43)ccc21", "activation": "inactive: -2.28%"},
      {"smiles": "CCCCOCCO", "Potency": "inactive"},
      {"smiles": "CC(C)CN(C(=O)COC(=O)Cn1cnc2ccccc2c1=O)C1CCS(=O)(=O)C1", "note": "(stereo unspecified)", "activation": "inactive: 9.24%"},
      {"smiles": "CN(C)CCC=C1c2ccccc2C=Cc2ccccc21", "Potency": "inactive"},
      {"smiles": "O=C(CCCn1c(=S)[nH]c2ccsc2c1=O)NCc1ccco1", "activation": "inactive: -78.5%"},
      {"smiles": "Clc1ccc(CSc2nnc(-c3ccncc3)o2)c(Cl)c1", "Potency": "active: 20 µM"},
      {"smiles": "Cc1ccc(C(=O)CSc2nc(C)cc(SCc3nnc(-c4ccccc4)o3)n2)cc1", "Potency": "active: 7.94 µM"},
      {"smiles": "c1ccc(Oc2ccccc2)cc1", "activation": "inactive: -32.5%"},
      {"smiles": "C=C(C)C1CC=C(C)C(O)C1", "note": "(stereo unspecified)", "activation": "inactive: 15.9%"},
      {"smiles": "O=S(=O)(c1ccc2c(c1)OCCO2)N(Cc1ccc(F)cc1)Cc1nnc(-c2cccs2)o1", "Potency": "active: 2 µM"},
      {"smiles": "CCC(C)N(C(=O)Cn1nnc2ccccc21)C(C(=O)NCc1ccco1)c1cccc(OC)c1", "note": "(stereo unspecified)", "Potency": "active: 15.8 µM"},
      {"smiles": "CC(=O)SC(C)CC(=O)Nc1ccccc1", "note": "(stereo unspecified)", "activation": "inactive: -45.5%"},
      {"smiles": "CCC(C)(C(=O)NC1CCCCC1)N(Cc1ccco1)C(=O)c1ccc2c(c1)OCO2", "note": "(stereo unspecified)", "Potency": "active: 7.94 µM"},
      {"smiles": "CCc1ccccc1OC[C@@H](O)CN[C@H]1CCCc2ccccc21", "Potency": "active: 39.8 µM"},
      {"smiles": "COc1cccc(NC(=O)c2ccccc2-c2nc(-c3ccccc3)no2)c1", "Potency": "active: 10 µM"},
      {"smiles": "Cc1cccc(-c2noc(CN(C(=O)c3ccc4c(c3)OCO4)C(C)C)n2)c1", "Potency": "active: 31.6 µM"},
      {"smiles": "CN(Cc1cnc2nc(N)nc(N)c2n1)c1ccc(C(=O)N[C@H](CCC(=O)O)C(=O)O)cc1", "Potency": "inactive"},
      {"smiles": "CC(C)NC[C@H](O)c1ccc2ccccc2c1", "activation": "inactive: 23.6%"},
      {"smiles": "CN(C1=NC(=O)C(CC(=O)Nc2ccc(Br)cc2)S1)c1ccc(O)cc1", "note": "(stereo unspecified)", "activation": "inactive: -52.7%"},
      {"smiles": "O=C(CNCC1CCCO1)N1CCCc2ccccc21", "note": "(stereo unspecified)", "activation": "inactive: -1.9%"},
      {"smiles": "COc1cc(C(=O)OCCCN2CCCN(CCCOC(=O)c3cc(OC)c(OC)c(OC)c3)CC2)cc(OC)c1OC", "Potency": "inactive"},
      {"smiles": "CN(C)c1ccc(-c2nc(Nc3ccncc3)c3ccccc3n2)cc1", "activation": "inactive: -48.6%"},
      {"smiles": "Oc1cc(O)c2c(c1)O[C@H](c1ccc(O)c(O)c1)[C@@H](O)C2", "activation": "inactive: 1.87%"},
      {"smiles": "CCN(CC)CCOC(=O)C1(C2CCCCC2)CCCCC1", "activation": "inactive: 13.6% [at 25.6 µM]"},
      {"smiles": "COc1ccc(Oc2cn[nH]c2-c2ccc(O)cc2O)cc1", "Potency": "active: 2 µM"},
      {"smiles": "CCSc1nnc(-c2cccc(S(=O)(=O)N(C)C)c2)n1-c1cc(OC)ccc1OC", "Potency": "active: 5.01 µM"},
      {"smiles": "CCN(C(=O)c1cc2cc3ccc(C)cc3nc2o1)c1ccc(OC)cc1", "Potency": "active: 39.8 µM"},
      {"smiles": "Oc1cc2c(cc1O)[C@H]1c3ccc(O)c(O)c3OC[C@@]1(O)C2", "activation": "inactive: -3.43%"},
      {"smiles": "CCOc1ccccc1C(=O)Nc1cc(OC)ccc1OC", "Potency": "active: 25.1 µM"},
      {"smiles": "Cc1nnc(SCC(=O)c2cc(C)n(-c3ccc4c(c3)OCO4)c2C)s1", "Potency": "active: 15.8 µM"},
      {"smiles": "CC(C)(C=O)Cc1cc(C(C)(C)C)c(O)c(C(C)(C)C)c1", "activation": "inactive: 11.3%"},
      {"smiles": "CN1CCC(=C2c3ccccc3C=Cc3ccccc32)CC1", "Potency": "inactive"},
      {"smiles": "O=C(NCC(c1cccnc1)N1CCN(c2ccccc2)CC1)c1ccc2c(c1)OCO2", "note": "(stereo unspecified)", "activation": "inactive: -96.2%"},
      {"smiles": "CC(C)n1c(NCc2ccc(N(C)C)cc2)nc2ccccc21", "activation": "inactive: -38.8%"},
      {"smiles": "COc1cc2c(cc1OC)C(c1ccc3c(c1)OCO3)C1=C(CC(C)(C)CC1=O)N2", "note": "(stereo unspecified)", "activation": "inactive: -55.6%"},
      {"smiles": "CCCC(c1nnnn1CCc1ccccc1)N1CCN(C2CCCC2)CC1", "note": "(stereo unspecified)", "Potency": "active: 15.8 µM"},
      {"smiles": "CCS(=O)(=O)N1CCC(NC(=O)C2CCCCC2)CC1", "activation": "inactive: -51.7%"},
      {"smiles": "O=C(c1cc(C(F)(F)F)cc(C(F)(F)F)c1)N1CCC2(CCN(Cc3ccncc3)CC2)CC1", "activation": "inactive: 16.7%"},
      {"smiles": "CC(=O)C1(O)C(C)CC2C3CCC4CC(O)CCC4(C)C3=CCC21C", "note": "(stereo unspecified)", "Potency": "active: 12.6 µM"}
    ]}
  ]
}
